The list shows a part of the results.
Legend:
Experiment in all cases: glycan array binding signal (z-score within array); higher = stronger binding
Details in all cases: glycan notation: IUPAC condensed, linker removed
Gal(a1-4)Gal(b1-4)Glc = target: Gal(a1-4)Gal(b1-4)Glc
Outline: (§1)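 Columns mapping to the same glycan were averaged after glycan names were converted to IUPAC-condensed notation. The data come from 3228 arrays in the Consortium for Functional Glycomics database, limited to those with an available protein sequence. Binding is reported as a within-array Z-score averaged across arrays of one protein sequence and across linkers.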

Gal(a1-4)Gal(b1-4)GlcNAc = target: Gal(a1-4)Gal(b1-4)GlcNAc
Outline: as §1

Gal(a1-4)GlcNAc = target: Gal(a1-4)GlcNAc
Outline: as §1

Gal(a1-6)Glc = target: Gal(a1-6)Glc
Outline: as §1

Gal(b1-2)Gal = target: Gal(b1-2)Gal
Outline: as §1

Gal(b1-3)Gal = target: Gal(b1-3)Gal
Outline: as §1

Gal(b1-3)GalNAc = target: Gal(b1-3)GalNAc
Outline: as §1

[1] = target: Gal(b1-3)GalNAc(b1-3)Gal(a1-4)Gal(b1-4)Glc
Outline: as §1

[2] = target: Gal(b1-3)GalNAc(b1-4)Gal(b1-4)Glc
Outline: as §1

[3] = target: Gal(b1-3)GalNAc(b1-4)[Neu5Ac(a2-3)]Gal(b1-4)Glc
Outline: as §1

Gal(b1-3)GlcNAc = target: Gal(b1-3)GlcNAc
Outline: as §1

[4] = target: Gal(b1-3)GlcNAc(b1-3)Gal(b1-4)Glc
Outline: as §1

[5] = target: Gal(b1-3)GlcNAc(b1-3)Gal(b1-4)GlcNAc
Outline: as §1

[6] = target: Gal(b1-3)[Fuc(a1-4)]GlcNAc
Outline: as §1

[7] = target: Gal(b1-3)[Fuc(a1-4)]GlcNAc(b1-3)Gal(b1-4)GlcNAc
Outline: as §1

[8] = target: Gal(b1-3)[Fuc(a1-4)]GlcNAc(b1-3)Gal(b1-4)[Fuc(a1-3)]GlcNAc
Outline: as §1

[9] = target: Gal(b1-3)[GlcNAc(b1-6)]GalNAc
Outline: as §1

[10] = target: Gal(b1-3)[Neu5Ac(a2-6)]GalNAc
Outline: as §1

[11] = target: Gal(b1-3)[Neu5Ac(a2-6)]GlcNAc(b1-6)Gal(b1-4)Glc
Outline: as §1

[12] = target: Gal(b1-3)[Neu5Ac(b2-6)]GalNAc
Outline: as §1

[13] = target: Gal(b1-4)GalNAc(a1-3)[Fuc(a1-2)]Gal(b1-4)GlcNAc
Outline: as §1

[14] = target: Gal(b1-4)GalNAc(b1-3)[Fuc(a1-2)]Gal(b1-4)GlcNAc
Outline: as §1

Gal(b1-4)Glc = target: Gal(b1-4)Glc
Outline: as §1

Gal(b1-4)Glc6S = target: Gal(b1-4)Glc6S
Outline: as §1

Gal(b1-4)GlcNAc = target: Gal(b1-4)GlcNAc
Outline: as §1

[15] = target: Gal(b1-4)GlcNAc(b1-2)Man(a1-3)[Gal(b1-4)GlcNAc(b1-2)Man(a1-6)]Man(b1-4)GlcNAc(b1-4)GlcNAc
Outline: as §1

[16] = target: Gal(b1-4)GlcNAc(b1-3)Gal(b1-4)Glc
Outline: as §1

[17] = target: Gal(b1-4)GlcNAc(b1-3)Gal(b1-4)GlcNAc
Outline: as §1

[18] = target: Gal(b1-4)GlcNAc(b1-3)Gal(b1-4)GlcNAc(b1-3)Gal(b1-4)GlcNAc
Outline: as §1

[19] = target: Gal(b1-4)GlcNAc(b1-3)Gal(b1-4)[Fuc(a1-3)]GlcNAc(b1-3)Gal(b1-4)[Fuc(a1-3)]GlcNAc
Outline: as §1

[20] = target: Gal(b1-4)GlcNAc(b1-3)GalNAc
Outline: as §1

[21] = target: Gal(b1-4)GlcNAc(b1-3)[Gal(b1-4)GlcNAc(b1-6)]GalNAc
Outline: as §1

[22] = target: Gal(b1-4)GlcNAc(b1-6)Gal(b1-4)GlcNAc(b1-6)GalNAc
Outline: as §1

[23] = target: Gal(b1-4)GlcNAc(b1-6)GalNAc
Outline: as §1

[24] = target: Gal(b1-4)GlcNAc(b1-6)[Gal(b1-3)]GalNAc
Outline: as §1

Gal3S(b1-3)GalNAc = target: Gal3S(b1-3)GalNAc
Outline: as §1

Gal3S(b1-3)GlcNAc = target: Gal3S(b1-3)GlcNAc
Outline: as §1

[25] = target: Gal3S(b1-3)[Fuc(a1-4)]GlcNAc
Outline: as §1

Gal3S(b1-4)Glc = target: Gal3S(b1-4)Glc
Outline: as §1

Gal3S(b1-4)Glc6S = target: Gal3S(b1-4)Glc6S
Outline: as §1

Gal3S(b1-4)GlcNAc = target: Gal3S(b1-4)GlcNAc
Outline: as §1

Gal3S(b1-4)GlcNAc6S = target: Gal3S(b1-4)GlcNAc6S
Outline: as §1

Gal3S6S(b1-4)GlcNAc = target: Gal3S6S(b1-4)GlcNAc
Outline: as §1

Gal3S6S(b1-4)GlcNAc6S = target: Gal3S6S(b1-4)GlcNAc6S
Outline: as §1

Gal4S(b1-4)GlcNAc = target: Gal4S(b1-4)GlcNAc
Outline: as §1

B1: DCIR (Homo sapiens), Q9UMR7 (protein)
chain: MTSEITYAEVRFKNEFKSSGINTASSAASKERTAPHKSNTGFPKLLCASLLIFFLLLAISFFIAFVIFFQKYSQLLEKKTTKELVHTTLECVKKNMPVEETAWSCCPKNWKSFSSNCYFISTESASWQDSEKDCARMEAHLLVINTQEEQDFIFQNLQEESAYFVGLSDPEGQRHWQWVDQTPYNESSTFWHPREPSDPNERCVVLNFRKSPKRWGWNDVNCLGPQRSVCEMMKIHL
For B1, the “glycan array binding signal (z-score)” value (Gal(a1-4)Gal(b1-4)Glc) was -0.507, the “glycan array binding signal (z-score)” value (Gal(a1-4)Gal(b1-4)GlcNAc) was 0.036 and the “glycan array binding signal (z-score)” value (Gal(a1-4)GlcNAc) was -0.095. The “glycan array binding signal (z-score)” value (Gal(a1-6)Glc) was -0.459, the “glycan array binding signal (z-score)” value (Gal(b1-2)Gal) was 0.027 and the “glycan array binding signal (z-score)” value (Gal(b1-3)Gal) was 0.012. For the same binder, the “glycan array binding signal (z-score)” value (Gal(b1-3)GalNAc) was -0.176, the “glycan array binding signal (z-score)” value [1] was -0.459 and the “glycan array binding signal (z-score)” value [2] was -0.413. The “glycan array binding signal (z-score)” value [3] was -0.099, the “glycan array binding signal (z-score)” value (Gal(b1-3)GlcNAc) was -0.477 and the “glycan array binding signal (z-score)” value [4] was -0.086. For the same binder, the “glycan array binding signal (z-score)” value [5] was -0.506, the “glycan array binding signal (z-score)” value [6] was -0.359 and the “glycan array binding signal (z-score)” value [7] was -0.114. The “glycan array binding signal (z-score)” value [8] was -0.316, the “glycan array binding signal (z-score)” value [9] was 0.239 and the “glycan array binding signal (z-score)” value [10] was 0.192. For the same binder, the “glycan array binding signal (z-score)” value [11] was -0.265, the “glycan array binding signal (z-score)” value [12] was -0.372 and the “glycan array binding signal (z-score)” value [13] was -0.129. For the same binder, the “glycan array binding signal (z-score)” value [14] was -0.582, the “glycan array binding signal (z-score)” value (Gal(b1-4)Glc) was -0.458 and the “glycan array binding signal (z-score)” value (Gal(b1-4)Glc6S) was 0.19. For the same binder, the “glycan array binding signal (z-score)” value (Gal(b1-4)GlcNAc) was -0.367, the “glycan array binding signal (z-score)” value [15] was 4.96 and the “glycan array binding signal (z-score)” value [16] was -0.114. For the same binder, the “glycan array binding signal (z-score)” value [17] was 0.02, the “glycan array binding signal (z-score)” value [18] was -0.49 and the “glycan array binding signal (z-score)” value [19] was -0.369. The “glycan array binding signal (z-score)” value [20] was 0.096, the “glycan array binding signal (z-score)” value [21] was -0.4 and the “glycan array binding signal (z-score)” value [22] was 0.07. For the same binder, the “glycan array binding signal (z-score)” value [23] was -0.428, the “glycan array binding signal (z-score)” value [24] was -0.161 and the “glycan array binding signal (z-score)” value (Gal3S(b1-3)GalNAc) was -0.205. For the same binder, the “glycan array binding signal (z-score)” value (Gal3S(b1-3)GlcNAc) was 0.291, the “glycan array binding signal (z-score)” value [25] was 0.626 and the “glycan array binding signal (z-score)” value (Gal3S(b1-4)Glc) was -0.426. The “glycan array binding signal (z-score)” value (Gal3S(b1-4)Glc6S) was 3.94, the “glycan array binding signal (z-score)” value (Gal3S(b1-4)GlcNAc) was 0.121 and the “glycan array binding signal (z-score)” value (Gal3S(b1-4)GlcNAc6S) was 5.68. For the same binder, the “glycan array binding signal (z-score)” value (Gal3S6S(b1-4)GlcNAc) was 2.62, the “glycan array binding signal (z-score)” value (Gal3S6S(b1-4)GlcNAc6S) was 7.43 and the “glycan array binding signal (z-score)” value (Gal4S(b1-4)GlcNAc) was -0.384.

Reference: the supplement of paper PMC8728848
